Measurements from the supplement of paper PMC4604168 (melanoma cell lines).
This is one part of the list. Most values come without repeats; read them as rough.

Columns and labels:
Test in all cases: cell count relative to DMSO control; melanoma cells; higher = more viable cells
Details in all cases: library dose: standard library concentration; 72 h
G361 = system: G361
IPC-298 = system: IPC-298
IST-MEL1 = system: IST-MEL1
LB2518-MEL = system: LB2518-MEL
LOXIMVI = system: LOXIMVI
MEL-HO = system: MEL-HO
MZ2-MEL = system: MZ2-MEL
MeWo = system: MeWo
RPMI7951 = system: RPMI7951
RVH-421 = system: RVH-421
SkMel28 = system: SkMel28
SkMel2 = system: SkMel2
SkMel30 = system: SkMel30
SkMel5 = system: SkMel5
UACC257 = system: UACC257
UACC62 = system: UACC62
WM115 = system: WM115
WM1716 = system: WM1716
WM1745 = system: WM1745
WM3526 = system: WM3526
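Further: cells treated in 1,536-well plates, then fixed and DAPI-stained, with nuclei counted from automated high-throughput microscope images.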

In the case of Cn1cncc1[C@@](N)(c1ccc(Cl)cc1)c1ccc2c(c1)c(-c1cccc(Cl)c1)cc(=O)n2C [tipifarnib] + O=C(Nc1ccccc1)c1cc([N+](=O)[O-])ccc1Cl [GW9662] (first compound 0.05 µM, partner dose 10 µM), the cell count (G361) is reported as 62.4%, the cell count (IPC-298) is reported as 83.5% and the cell count (IST-MEL1) is reported as 91%. For the same compound, the cell count (LB2518-MEL) was 63.1%, the cell count (LOXIMVI) was 72.7% and the cell count (MEL-HO) was 84.8%. For the same compound, the cell count (MZ2-MEL) was 97.4%, the cell count (MeWo) was 72.7% and the cell count (RPMI7951) was 52.7%. The cell count (RVH-421) was 70.1%, the cell count (SkMel28) was 43% and the cell count (SkMel2) was 81.2%. It also gave a cell count (SkMel30) of 96.6%, a cell count (SkMel5) of 67.2% and a cell count (UACC257) of 89.7%. For the same compound, the cell count (UACC62) was 67.4%, the cell count (WM115) was 67.8% and the cell count (WM1716) was 72.5%. It also gave a cell count (WM1745) of 66.8% and a cell count (WM3526) of 81.4%.

Cn1cncc1[C@@](N)(c1ccc(Cl)cc1)c1ccc2c(c1)c(-c1cccc(Cl)c1)cc(=O)n2C [tipifarnib] + NCC(=O)Nc1ccc(-n2nc(C(F)(F)F)cc2-c2ccc3c(ccc4ccccc43)c2)cc1 [OSU03012] (first compound 0.05 µM, partner dose 5 µM) was tested, and the cell count (G361) was 79%, the cell count (IPC-298) was 62.9% and the cell count (IST-MEL1) was 79%. For the same compound, the cell count (LB2518-MEL) was 86.2%, the cell count (LOXIMVI) was 81.2% and the cell count (MEL-HO) was 78.6%. The cell count (MZ2-MEL) was 102%, the cell count (MeWo) was 99% and the cell count (RPMI7951) was 77.2%. For the same compound, the cell count (RVH-421) was 88.5%, the cell count (SkMel28) was 35% and the cell count (SkMel2) was 35.7%. For the same compound, the cell count (SkMel30) was 47.5%, the cell count (SkMel5) was 66.9% and the cell count (UACC257) was 81.6%. For the same compound, the cell count (UACC62) was 53.8%, the cell count (WM115) was 71.6% and the cell count (WM1716) was 74.2%. It also gave a cell count (WM1745) of 83.8% and a cell count (WM3526) of 40.3%.

O=C(O)c1ccc(-c2c[nH]c3ncc(-c4ccccc4)cc23)cc1C1CCCC1 + NCC(=O)Nc1ccc(-n2nc(C(F)(F)F)cc2-c2ccc3c(ccc4ccccc43)c2)cc1 [OSU03012] (first compound 0.8 µM, partner dose 5 µM) gave a cell count (G361) of 52.8%, a cell count (IPC-298) of 54.6% and a cell count (IST-MEL1) of 81.1%. For the same compound, the cell count (LB2518-MEL) was 83.2%, the cell count (LOXIMVI) was 99.9% and the cell count (MEL-HO) was 82.7%. The cell count (MZ2-MEL) was 88.4%, the cell count (MeWo) was 80.7% and the cell count (RPMI7951) was 104%. For the same compound, the cell count (RVH-421) was 73.3%, the cell count (SkMel28) was 21.5% and the cell count (SkMel2) was 31.2%. For the same compound, the cell count (SkMel30) was 51.1%, the cell count (SkMel5) was 54.3% and the cell count (UACC257) was 75.4%. The cell count (UACC62) was 50.9%, the cell count (WM115) was 82.6% and the cell count (WM1716) was 87.6%. The cell count (WM1745) was 96.1% and the cell count (WM3526) was 47.3%.

Compound O=C(Nc1cccc(Cl)c1)Nc1ncc(CCNc2ncnc3ccsc23)s1 + Cn1cc(/C=C2\C(=O)Nc3cccnc32)c2ccccc21 [GW441756] (first compound 0.004 µM, partner dose 2 µM) has a cell count (G361) of 76.9%, a cell count (IPC-298) of 66.8% and a cell count (IST-MEL1) of 74.7%. For the same compound, the cell count (LB2518-MEL) was 96.8%, the cell count (LOXIMVI) was 88.2% and the cell count (MEL-HO) was 94.4%. For the same compound, the cell count (MZ2-MEL) was 77.6%, the cell count (MeWo) was 94.5% and the cell count (RPMI7951) was 71.7%. The cell count (RVH-421) was 88.2%, the cell count (SkMel28) was 42.1% and the cell count (SkMel2) was 87%. It also gave a cell count (SkMel30) of 122%, a cell count (SkMel5) of 70.1% and a cell count (UACC257) of 95.7%. It also gave a cell count (UACC62) of 101%, a cell count (WM115) of 63.9% and a cell count (WM1716) of 73.8%. It also gave a cell count (WM1745) of 74.2% and a cell count (WM3526) of 94.7%.

Compound CC1(C)NC(=O)N(c2ccc([N+](=O)[O-])c(C(F)(F)F)c2)C1=O [nilutamide] + CC(C)CCN1c2nc(Nc3cc(F)c(O)c(F)c3)ncc2N(C)C(=O)C1C [BID1870] (first compound 5 µM, partner dose 1 µM) has a cell count (G361) of 57.9%, a cell count (IPC-298) of 72.2% and a cell count (IST-MEL1) of 89.8%. For the same compound, the cell count (LB2518-MEL) was 124%, the cell count (LOXIMVI) was 83.3% and the cell count (MEL-HO) was 80.6%. For the same compound, the cell count (MZ2-MEL) was 105%, the cell count (MeWo) was 69.1% and the cell count (RPMI7951) was 89.6%. The cell count (RVH-421) was 70.9%, the cell count (SkMel28) was 56.7% and the cell count (SkMel2) was 87.6%. It also gave a cell count (SkMel30) of 74.3%, a cell count (SkMel5) of 72.8% and a cell count (UACC257) of 82.9%. It also gave a cell count (UACC62) of 85.8%, a cell count (WM115) of 75.6% and a cell count (WM1716) of 59.2%. The cell count (WM1745) was 87.8% and the cell count (WM3526) was 57.4%.

Work on Cn1cncc1[C@@](N)(c1ccc(Cl)cc1)c1ccc2c(c1)c(-c1cccc(Cl)c1)cc(=O)n2C [tipifarnib] + COc1cc2c(Oc3ccc4[nH]c(C)cc4c3F)ncnc2cc1OCCCN1CCCC1 [cediranib] (first compound 0.05 µM, partner dose 2 µM) yielded a cell count (G361) of 77.2%, a cell count (IPC-298) of 102% and a cell count (IST-MEL1) of 71%. The cell count (LB2518-MEL) was 84%, the cell count (LOXIMVI) was 58.2% and the cell count (MEL-HO) was 91.3%. For the same compound, the cell count (MZ2-MEL) was 98%, the cell count (MeWo) was 72.7% and the cell count (RPMI7951) was 60.2%. It also gave a cell count (RVH-421) of 109%, a cell count (SkMel28) of 71.9% and a cell count (SkMel2) of 80.6%. It also gave a cell count (SkMel30) of 104%, a cell count (SkMel5) of 72.5% and a cell count (UACC257) of 93.2%. The cell count (UACC62) was 59.3%, the cell count (WM115) was 91.3% and the cell count (WM1716) was 68.7%. It also gave a cell count (WM1745) of 78.6% and a cell count (WM3526) of 77.5%.

O=c1[nH]nc(Sc2ncc([N+](=O)[O-])s2)n1-c1ccc2c(c1)OCCO2 + Cn1c(=O)n(-c2ccc(C(C)(C)C#N)cc2)c2c3cc(-c4cnc5ccccc5c4)ccc3ncc21 [NVP-BEZ235] (first compound 1 µM, partner dose 0.02 µM) showed a cell count (G361) of 69.7%, a cell count (IPC-298) of 72.8% and a cell count (IST-MEL1) of 79.3%. The cell count (LB2518-MEL) was 90.3%, the cell count (LOXIMVI) was 74.4% and the cell count (MEL-HO) was 77.1%. For the same compound, the cell count (MZ2-MEL) was 80%, the cell count (MeWo) was 70.4% and the cell count (RPMI7951) was 58.5%. It also gave a cell count (RVH-421) of 95.6%, a cell count (SkMel28) of 30.7% and a cell count (SkMel2) of 74.4%. For the same compound, the cell count (SkMel30) was 79.4%, the cell count (SkMel5) was 57% and the cell count (UACC257) was 94.4%. The cell count (UACC62) was 67.5%, the cell count (WM115) was 69.6% and the cell count (WM1716) was 72.6%. For the same compound, the cell count (WM1745) was 83.4% and the cell count (WM3526) was 72%.

O=c1[nH]nc(Sc2ncc([N+](=O)[O-])s2)n1-c1ccc2c(c1)OCCO2 + NC(=O)Nc1cc(-c2cccc(F)c2)sc1C(=O)N[C@H]1CCCNC1 [AZD7762] (first compound 1 µM, partner dose 0.1 µM) was tested, and the cell count (G361) was 92.7%, the cell count (IPC-298) was 110% and the cell count (IST-MEL1) was 93.6%. For the same compound, the cell count (LB2518-MEL) was 75.8%, the cell count (LOXIMVI) was 73.1% and the cell count (MEL-HO) was 79.6%. For the same compound, the cell count (MZ2-MEL) was 116%, the cell count (MeWo) was 77.4% and the cell count (RPMI7951) was 30.9%. The cell count (RVH-421) was 94.1%, the cell count (SkMel28) was 42.2% and the cell count (SkMel2) was 89.3%. It also gave a cell count (SkMel30) of 79.7%, a cell count (SkMel5) of 88% and a cell count (UACC257) of 105%. For the same compound, the cell count (UACC62) was 70.7%, the cell count (WM115) was 71.4% and the cell count (WM1716) was 64.5%. For the same compound, the cell count (WM1745) was 44.9% and the cell count (WM3526) was 57.1%.

In the case of O=c1[nH]nc(Sc2ncc([N+](=O)[O-])s2)n1-c1ccc2c(c1)OCCO2 + O=C(/C=C/c1cccnc1)NCCCCC1CCN(C(=O)c2ccccc2)CC1 [FK866] (first compound 1 µM, partner dose 0.05 µM), the cell count (G361) is reported as 3.24%, the cell count (IPC-298) is reported as 31% and the cell count (IST-MEL1) is reported as 59.1%. It also gave a cell count (LB2518-MEL) of 58.6%, a cell count (LOXIMVI) of 69.6% and a cell count (MEL-HO) of 49.6%. For the same compound, the cell count (MZ2-MEL) was 39.3%, the cell count (MeWo) was 92.7% and the cell count (RPMI7951) was 68.8%. For the same compound, the cell count (RVH-421) was 44%, the cell count (SkMel28) was 86.9% and the cell count (SkMel2) was 12%. It also gave a cell count (SkMel30) of 89%, a cell count (SkMel5) of 89.4% and a cell count (UACC257) of 101%. For the same compound, the cell count (UACC62) was 72.7%, the cell count (WM115) was 81.1% and the cell count (WM1716) was 74.4%. The cell count (WM1745) was 101% and the cell count (WM3526) was 99.8%.
